# Laboratory results reported in article PMC4336329 (PLoS ONE, 2015).
# The campaign covered roughly 310,000 compounds. About 14,000 (4.5%) showed an effect of 50% or more. Effects have a minus sign here. Some of the results follow.
# Target: human ether-à-go-go-related gene (hERG) potassium channel (human, UniProt Q12809)
# Experiment: primary screen, population patch clamp on CHO cells stably expressing hERG
# 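Further: peak tail current of the secondary pulse compared with the same well before compound.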
# human ether-à-go-go-related gene (hERG) potassium channel, sequence (Q12809 whole entry, looked up): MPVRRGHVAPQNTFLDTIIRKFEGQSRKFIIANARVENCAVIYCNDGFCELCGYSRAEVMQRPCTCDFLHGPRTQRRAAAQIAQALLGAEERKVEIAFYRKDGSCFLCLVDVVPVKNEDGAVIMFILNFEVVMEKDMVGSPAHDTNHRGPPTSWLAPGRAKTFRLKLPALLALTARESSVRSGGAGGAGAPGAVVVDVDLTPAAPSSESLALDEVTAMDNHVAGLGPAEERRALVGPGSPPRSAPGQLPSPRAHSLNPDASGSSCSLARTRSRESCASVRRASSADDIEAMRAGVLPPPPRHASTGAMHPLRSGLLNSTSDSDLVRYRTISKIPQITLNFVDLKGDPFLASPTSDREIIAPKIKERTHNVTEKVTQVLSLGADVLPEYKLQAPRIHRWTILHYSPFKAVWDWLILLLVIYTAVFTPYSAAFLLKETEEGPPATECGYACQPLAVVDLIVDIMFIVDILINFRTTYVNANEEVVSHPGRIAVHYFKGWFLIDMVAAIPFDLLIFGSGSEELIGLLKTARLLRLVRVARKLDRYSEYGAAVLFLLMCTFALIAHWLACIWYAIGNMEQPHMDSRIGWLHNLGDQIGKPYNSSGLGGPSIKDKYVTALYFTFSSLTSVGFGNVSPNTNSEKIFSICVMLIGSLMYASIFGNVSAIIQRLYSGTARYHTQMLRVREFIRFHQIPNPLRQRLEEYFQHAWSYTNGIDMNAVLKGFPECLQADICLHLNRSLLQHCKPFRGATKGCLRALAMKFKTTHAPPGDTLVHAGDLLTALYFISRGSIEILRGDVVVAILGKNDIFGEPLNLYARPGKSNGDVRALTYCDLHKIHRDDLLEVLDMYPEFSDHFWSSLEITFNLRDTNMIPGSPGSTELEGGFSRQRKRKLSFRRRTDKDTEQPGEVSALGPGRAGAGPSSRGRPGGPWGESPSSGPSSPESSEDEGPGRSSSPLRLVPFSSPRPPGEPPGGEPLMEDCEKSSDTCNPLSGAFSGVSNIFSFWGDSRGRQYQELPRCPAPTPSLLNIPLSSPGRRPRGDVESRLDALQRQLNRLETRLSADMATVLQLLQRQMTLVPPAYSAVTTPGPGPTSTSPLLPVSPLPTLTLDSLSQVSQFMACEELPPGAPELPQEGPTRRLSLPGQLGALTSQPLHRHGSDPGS
row,SMILES,"hERG current change (%, negative = inhibition) at 10uM [%]"
1,N#CCc1ccc(NC(=O)c2ccccc2C(=O)Nc2ccc(CC#N)cc2)cc1,-14.8
2,N/C(=N\OC(=O)c1ccc(F)cc1)c1nonc1N,5.87
3,COc1ccc(CNC(=O)/C=C/C(=O)O)cc1,-19
4,COc1ccc(CNS(=O)(=O)c2ccc3c(c2)NC(=O)C(C)S3)cc1 (stereo not drawn),2.33
5,Cc1cccc(C)c1NC(=O)CSc1nnc(NC(=O)c2ccccc2C(=O)O)s1,9.74
6,NS(=O)(=O)c1ccc(CCNC(=O)c2cc(-c3ccccn3)nc3ccc(Br)cc23)cc1,9.39
7,CC(=O)c1c(C)[nH]c(C(=O)NC(C)c2ccccc2)c1C (stereo not drawn),0.331
8,CCc1ccc(CN2CCC(Oc3ccc(C(=O)NCc4ccccn4)cc3)CC2)o1,-12.9
9,CC(=O)c1ccn(S(=O)(=O)c2ccc(Cl)cc2)c1,6.57
10,COc1ccccc1NC(=O)CCSc1nc(C)cs1,12.8
11,CCCN1CCN(C(=O)c2ccccc2-c2nc3ccccc3s2)CC1,-31.5
12,CCCCC(=O)NS(=O)(=O)c1ccc(NS(C)(=O)=O)cc1,5.49
13,CC(=O)c1ccc(Nc2cnn(C34CC5CC(CC(CC(=O)O)(C5)C3)C4)c(=O)c2Cl)cc1,18.8
14,COc1ccccc1OCCn1cc(C=O)c2ccccc21,8.32
15,CCc1ccc(S(=O)(=O)Nc2ccc(-c3ccc4nnc(C)n4n3)cc2)s1,2.31
16,O=C(Nc1ccc2c(c1)OCO2)N1CCN(c2ncc(C(F)(F)F)cc2Cl)CC1,-2.57
17,C/C(CC1(O)/C(=N/O)CCc2nonc21)=N\O (stereo not drawn),18.3
18,COc1cccc2cc(C(C)N(CCCN3CCOCC3)C(=S)Nc3cc(C)ccc3C)oc12 (stereo not drawn),1.47
19,O=S(=O)(c1ccc(Cl)nc1)N1CCN(Cc2ccc3c(c2)OCO3)CC1,-23.9
20,c1ccc(C(c2ccccc2)c2noc(CN3CCN(CC4CC4)CC3)n2)cc1,-61.6
21,COc1cc(CNc2ccc3[nH]c(=O)[nH]c3c2)cc(Cl)c1OCC(=O)NC(C)(C)C,4.56
22,O=C(Nc1ccc(Cl)cn1)c1cccc(F)c1,-5.06

row,SMILES,"hERG current change (%, negative = inhibition) at 10uM [%]"
1,COc1ccnc(N=CNOCc2ccc(F)cc2Cl)c1C#N,15.9
2,Cc1noc(C)c1CSc1nnc2scc(-c3ccccc3)n12,-35.6
3,N#Cc1c(C(F)(F)F)cc(-c2ccccc2Cl)[nH]c1=O,8.55
4,O=C(O)c1cc2nc(C3CC3)cc(C(F)(F)F)n2n1,12.9
5,Cc1ccc(N2CC(C(=O)NCc3ccc4c(c3)OCO4)CC2=O)cc1C (stereo not drawn),-15.6
6,O=C1c2cccnc2C(=O)N1Cc1ccc(S(=O)(=O)NCc2ccco2)cc1,13.4
7,O=C(Oc1ccc(Br)cc1)C1CC(=O)N(c2ccc(F)cc2)C1 (stereo not drawn),-10.5
8,Cc1cccc(C(=O)N[C@H](C(=O)Nc2ccc(S(=O)(=O)NC3=NCCCCC3)cc2)C(C)C)c1,7.47
9,CCOC(=O)c1ccc(S(=O)(=O)N2CCN(CC(O)COc3ccc(C#N)cc3)CC2)cc1.O=C(O)C(=O)O (stereo not drawn),-63.2
10,CC(=O)C(Sc1nc(N(C)C)nc(N(C)C)n1)C(=O)Nc1ccccc1 (stereo not drawn),-3.04
11,Cc1cc(-c2ccc(/C=N/n3cnnc3)o2)ccc1Cl,-9
12,CC(=O)c1cnn(-c2ccc(Cl)c(Cl)c2Cl)c1C,-8.45
13,COc1ccc(C(=O)Nc2ccc(-c3n[nH]c(=S)o3)cc2)cc1,20.8
14,Cc1occc1C(=O)Nc1cccc(C(=O)NCc2ccccc2)c1,-30.3
15,COC(=O)CSc1nc2sccc2c(=O)n1-c1ccccc1,5.26
16,O=C(c1cncs1)N1CCCC(CNS(=O)(=O)c2cccs2)C1 (stereo not drawn),18.3
17,Cc1cc(C)nc(SCc2nnc(SCC(=O)Nc3cc(C(F)(F)F)ccc3Cl)o2)n1,-29.9
18,NC(=O)c1ccccc1NC(=O)Nc1cccc(Cl)c1Cl,8.98
19,Cc1ccc(C2C(C#N)=C(N)Oc3n[nH]c(C)c32)cc1 (stereo not drawn),7.32
20,CC1CCN(Cc2nc3c(c(=O)n(C)c(=O)n3C)n2CCCc2ccccc2)CC1,-8.01
21,O=C(Nc1ccc(-c2cccc(F)c2)cc1)C1CCCN(Cc2ccccn2)C1 (stereo not drawn),-42.3
22,CCOCC(=O)Nc1cc(C(=O)Nc2cc(C)cc(C)c2)ccc1Cl,-2.29

row,SMILES,"hERG current change (%, negative = inhibition) at 10uM [%]"
1,COc1ccc(CCNC(=O)C(=O)NCCCN2CCOCC2)cc1,7.99
2,Cc1ccc(NC(=O)C(=O)NCCc2c[nH]c3ccccc23)cc1C,15.8
3,O=C(c1ccc2c3n(nc2c1)-c1ccc(Cl)cc1CO3)N1CCOCC1,-5.05
4,O=C(N/N=C/c1cccnc1)c1cc(Br)ccc1O,30.5
5,Cc1[nH][nH]c(=O)c1C=Nc1ccc(C(F)(F)F)cc1,17.4
6,COc1ccc(-c2nnc(SCC(=O)N3CCOCC3)n2C)cc1OC,-1.06
7,COC(=O)c1c(NC(C)=O)sc(C(=O)Nc2ccccc2OC)c1C,16.2
8,CN(CCCC(=O)NC1CC(C)(C)NC(C)(C)C1)S(=O)(=O)c1ccc([N+](=O)[O-])cc1,12.5
9,CC(C)(C)c1ccc(C(=O)N2CCCC2c2cccs2)cc1 (stereo not drawn),19.2
10,CN(C)c1cccc(C(=O)N/C=C/n2cnc3cc(C(F)(F)F)ccc32)c1,26.6
11,CCOc1ccc(-c2cc(CCCC(=O)Nc3cc(OC)ccc3OC)no2)cc1,-7.32
12,CC(C)(C)NC(=O)/C(=C\C=C\c1ccccc1)NC(=O)c1ccc([N+](=O)[O-])cc1,-35.1
13,CCn1c(NCc2cc(OC)c(OC)c(OC)c2)nc2ccccc21.Cl,-25.3
14,COc1ccc(OC)c(NC(=O)CS(=O)(=O)c2ccccc2)c1,-4.1
15,Oc1ccc(N=Cc2ccc(-c3cccs3)s2)cc1,-0.074
16,NS(=O)(=O)c1ccc(CCNC(=O)CSc2nc3ccsc3c(=O)n2CCCCC(=O)O)cc1,70.7
17,COc1cc(/C=N/NC(=O)c2ccc(-n3cccc3)cc2)ccc1O,-40.1
18,Cc1cc2c3c(c1)C(C)CC(C)(C)N3C(=O)C2=O (stereo not drawn),0.145
19,COc1ccc(NC(=O)c2ccc(S(=O)(=O)N3CCOCC3)o2)cc1,0.458
20,O=C(CNC(=O)c1ccc(S(=O)(=O)N2CCCC2)cc1)N/N=C/c1c(Cl)cccc1Cl,6.64
21,Cc1c(CCC(=O)O)c(=O)oc2c(C)c(OCc3ccccc3Cl)ccc12,16.7
22,CN(C)CCCN(C(=O)c1ccc(C(=O)c2ccccc2)cc1)c1nc2c(F)cccc2s1,-67.3

row,SMILES,"hERG current change (%, negative = inhibition) at 10uM [%]"
1,OC(CNCCNc1ncccc1C(F)(F)F)COc1ccc(F)cc1 (stereo not drawn),-72
2,Cc1ccc(NC(=O)Cn2nc(C)c3ccccc3c2=O)cc1,-7.32
3,COc1ccc(C(O)Cn2cc([N+](=O)[O-])nc2C)cc1 (stereo not drawn),13
4,COc1cccc(CNC(=O)CNC(=O)c2cccs2)c1,8.57
5,COc1ccc(/C(N)=N/OC(=O)Cc2ccc(C)cc2)cc1OC,8.62
6,Cc1cc(NC(=O)Cn2nc(-c3cccs3)ccc2=O)cc(C)c1Br,24.9
7,Cc1ccnc(Nc2nc3ccccc3s2)n1,-4.71
8,Cc1ccc(NC(=O)CSc2nc(=O)n(CCCN3CCOCC3)c3c2CCCC3)cc1,-45.5
9,O=C(COC(=O)c1cccc(S(=O)(=O)N2CCOCC2)c1)Nc1ncc(C(F)(F)F)cc1Cl,-48.8
10,CC1=NC(Nc2nc(C)c3ccccc3n2)=NC(C)(C)C1,-69.4
11,CS(=O)(=O)c1cccc(NC(=O)C2CCCN2S(=O)(=O)c2ccc(F)cc2)c1 (stereo not drawn),7.77
12,COc1ccc(C2CC(c3ccccc3)=NN2S(=O)(=O)c2ccccc2)c(OC)c1 (stereo not drawn),6
13,CC(=O)N/C(=N\OCc1ccc(Br)cc1)c1nonc1NC(C)=O,12.3
14,O=C(CN1CCCCC1)Nc1ccc(F)c(Cl)c1,-4.98
15,Cc1ccc(C(=O)NC(=S)NNC(=O)c2ccccc2[N+](=O)[O-])cc1,14.2
16,CC(C(=O)Nc1ccc(S(=O)(=O)N2CCOCC2)cc1)N1CCN(c2ccccn2)CC1 (stereo not drawn),-4.31
17,O=C(C[n+]1cc(-c2ccccc2)n2c1CCC2)Nc1nc(-c2ccc(F)cc2)cs1.[Cl-],-20.3
18,COc1ccc(C(=O)OCC(=O)c2cc(OC)ccc2OC)c(OC)c1,6.44
19,CCCn1c(N)c(C(=O)CSc2nnnn2-c2ccc(O)cc2)c(=O)n(C)c1=O,5.2
20,O=C(CCc1ccccc1O)NC1CCCc2ccccc21 (stereo not drawn),-20.7
21,COc1cccc(CNC(=O)COC(=O)C2CCN(c3ccc(C(F)(F)F)cn3)CC2)c1,-12.8
